Reference: the supplement of paper PMC8728848
The other results are listed elsewhere or left out.

What was measured:
Test in all cases: glycan array binding signal (z-score within array); higher = stronger binding
Settings in all cases: glycan notation: IUPAC condensed, linker removed
[1] = target: Neu5Ac(a2-3)GalNAc(b1-4)GlcNAc
Summary of the method: (§1)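 Glycan array data were curated from 3228 arrays in the Consortium for Functional Glycomics database and kept only where the protein sequence was available. Glycan names were converted to IUPAC-condensed notation, and columns mapping to the same glycan were averaged. The binding signal is a within-array Z-score, averaged across arrays of the same protein sequence at different concentrations or buffers and across linkers. Negative Z-scores can be read as non-binding.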

[2] = target: Neu5Ac(a2-3)[GalNAc(b1-4)]Gal(b1-4)Glc
Summary of the method: as §1

[3] = target: Neu5Ac(a2-3)[GalNAc(b1-4)]Gal(b1-4)GlcNAc
Summary of the method: as §1

[4] = target: Neu5Ac(a2-3)[GalNAc(b1-4)]Gal(b1-4)GlcNAc(b1-3)GalNAc
Summary of the method: as §1

[5] = target: Neu5Ac(a2-3)[Neu5Ac(a2-6)]GalNAc
Summary of the method: as §1

[6] = target: Neu5Ac(a2-6)Gal
Summary of the method: as §1

[7] = target: Neu5Ac(a2-6)Gal(b1-3)GlcNAc(b1-3)[Gal(b1-4)GlcNAc(b1-6)]Gal(b1-4)Glc
Summary of the method: as §1

[8] = target: Neu5Ac(a2-6)Gal(b1-4)Glc
Summary of the method: as §1

[9] = target: Neu5Ac(a2-6)Gal(b1-4)GlcNAc
Summary of the method: as §1

[10] = target: Neu5Ac(a2-6)Gal(b1-4)GlcNAc(b1-2)Man(a1-3)Man(b1-4)GlcNAc(b1-4)GlcNAc
Summary of the method: as §1

[11] = target: Neu5Ac(a2-6)Gal(b1-4)GlcNAc(b1-2)Man(a1-3)[Gal(b1-4)GlcNAc(b1-2)Man(a1-6)]Man(b1-4)GlcNAc(b1-4)GlcNAc
Summary of the method: as §1

[12] = target: Neu5Ac(a2-6)Gal(b1-4)GlcNAc(b1-2)Man(a1-3)[GlcNAc(b1-2)Man(a1-6)]Man(b1-4)GlcNAc(b1-4)GlcNAc
Summary of the method: as §1

[13] = target: Neu5Ac(a2-6)Gal(b1-4)GlcNAc(b1-2)Man(a1-3)[GlcNAc(b1-2)Man(b1-4)GlcNAc(b1-2)Man(a1-6)]Man(b1-4)GlcNAc(b1-4)GlcNAc
Summary of the method: as §1

[14] = target: Neu5Ac(a2-6)Gal(b1-4)GlcNAc(b1-2)Man(a1-3)[Man(a1-6)]Man(b1-4)GlcNAc(b1-4)GlcNAc
Summary of the method: as §1

[15] = target: Neu5Ac(a2-6)Gal(b1-4)GlcNAc(b1-2)Man(a1-3)[Neu5Ac(a2-6)Gal(b1-4)GlcNAc(b1-2)Man(a1-6)]Man(b1-4)GlcNAc(b1-4)GlcNAc
Summary of the method: as §1

[16] = target: Neu5Ac(a2-6)Gal(b1-4)GlcNAc(b1-2)Man(a1-6)Man(b1-4)GlcNAc(b1-4)GlcNAc
Summary of the method: as §1

[17] = target: Neu5Ac(a2-6)Gal(b1-4)GlcNAc(b1-2)Man(a1-6)[Gal(b1-4)GlcNAc(b1-2)Man(a1-3)]Man(b1-4)GlcNAc(b1-4)GlcNAc
Summary of the method: as §1

[18] = target: Neu5Ac(a2-6)Gal(b1-4)GlcNAc(b1-2)Man(a1-6)[GlcNAc(b1-2)Man(a1-3)]Man(b1-4)GlcNAc(b1-4)GlcNAc
Summary of the method: as §1

[19] = target: Neu5Ac(a2-6)Gal(b1-4)GlcNAc(b1-2)Man(a1-6)[Man(a1-3)]Man(b1-4)GlcNAc(b1-4)GlcNAc
Summary of the method: as §1

[20] = target: Neu5Ac(a2-6)Gal(b1-4)GlcNAc(b1-3)Gal(b1-3)GlcNAc
Summary of the method: as §1

[21] = target: Neu5Ac(a2-6)Gal(b1-4)GlcNAc(b1-3)Gal(b1-4)GlcNAc
Summary of the method: as §1

[22] = target: Neu5Ac(a2-6)Gal(b1-4)GlcNAc(b1-3)Gal(b1-4)GlcNAc(b1-3)Gal(b1-4)GlcNAc
Summary of the method: as §1

[23] = target: Neu5Ac(a2-6)Gal(b1-4)GlcNAc(b1-3)Gal(b1-4)[Fuc(a1-3)]GlcNAc(b1-3)Gal(b1-4)[Fuc(a1-3)]GlcNAc
Summary of the method: as §1

[24] = target: Neu5Ac(a2-6)Gal(b1-4)GlcNAc(b1-3)GalNAc
Summary of the method: as §1

[25] = target: Neu5Ac(a2-6)Gal(b1-4)GlcNAc6S
Summary of the method: as §1

[26] = target: Neu5Ac(a2-6)GalNAc
Summary of the method: as §1

[27] = target: Neu5Ac(a2-6)GalNAc(b1-4)GlcNAc
Summary of the method: as §1

[28] = target: Neu5Ac(a2-6)GlcNAc(b1-4)GlcNAc
Summary of the method: as §1

[29] = target: Neu5Ac(a2-6)GlcNAc(b1-4)GlcNAc(b1-4)GlcNAc
Summary of the method: as §1

[30] = target: Neu5Ac(a2-8)Neu5Ac
Summary of the method: as §1

[31] = target: Neu5Ac(a2-8)Neu5Ac(a2-3)Gal(b1-3)GalNAc(b1-4)[Neu5Ac(a2-8)Neu5Ac(a2-3)]Gal(b1-4)Glc
Summary of the method: as §1

[32] = target: Neu5Ac(a2-8)Neu5Ac(a2-3)Gal(b1-4)Glc
Summary of the method: as §1

[33] = target: Neu5Ac(a2-8)Neu5Ac(a2-3)[Gal(b1-3)GalNAc(b1-4)]Gal(b1-4)Glc
Summary of the method: as §1

[34] = target: Neu5Ac(a2-8)Neu5Ac(a2-3)[GalNAc(b1-4)]Gal(b1-4)Glc
Summary of the method: as §1

[35] = target: Neu5Ac(a2-8)Neu5Ac(a2-8)Neu5Ac
Summary of the method: as §1

[36] = target: Neu5Ac(a2-8)Neu5Ac(a2-8)Neu5Ac(a2-3)Gal(b1-4)Glc
Summary of the method: as §1

[37] = target: Neu5Ac(a2-8)Neu5Ac(a2-8)Neu5Ac(a2-3)[GalNAc(b1-4)]Gal(b1-4)Glc
Summary of the method: as §1

[38] = target: Neu5Ac(a2-8)Neu5Ac(a2-8)Neu5Ac(a2-8)Neu5Ac(a2-3)[GalNAc(b1-4)]Gal(b1-4)Glc
Summary of the method: as §1

B1: UEA-I (Ulex europaeus), P22972 (protein)
chain: SDDLSFKFKNFSQNGKDLSFQGDASVIETGVLQLNKVGNNLPDETGGIARYIAPIHIWNCNTGEVASFITSFSFFMETSANPKAATDGLTFFLAPPDSPLRRAGGYFGLFEDTKDNDSSYQTVAVEFDTIGSPVNFDDPGFPHIGIDVNRVKSINAERWNKRYGLNNVANVEIIYEASSKTLTASLTYPSDQTSISVTSIVDLKEILPEWVSVGFSGGTYIGRQATHEVLNWYFTSNLIN
[1]
  glycan array binding signal (z-score): -0.181
[2]
  glycan array binding signal (z-score): -0.187
[3]
  glycan array binding signal (z-score): -0.179
[4]
  glycan array binding signal (z-score): -0.114
[5]
  glycan array binding signal (z-score): -0.182
[6]
  glycan array binding signal (z-score): -0.181
[7]
  glycan array binding signal (z-score): -0.177
[8]
  glycan array binding signal (z-score): -0.182
[9]
  glycan array binding signal (z-score): -0.178
[10]
  glycan array binding signal (z-score): -0.179
[11]
  glycan array binding signal (z-score): -0.183
[12]
  glycan array binding signal (z-score): -0.179
[13]
  glycan array binding signal (z-score): -0.179
[14]
  glycan array binding signal (z-score): -0.184
[15]
  glycan array binding signal (z-score): -0.17
[16]
  glycan array binding signal (z-score): -0.184
[17]
  glycan array binding signal (z-score): -0.176
[18]
  glycan array binding signal (z-score): -0.175
[19]
  glycan array binding signal (z-score): -0.176
[20]
  glycan array binding signal (z-score): -0.185
[21]
  glycan array binding signal (z-score): -0.179
[22]
  glycan array binding signal (z-score): -0.176
[23]
  glycan array binding signal (z-score): -0.179
[24]
  glycan array binding signal (z-score): -0.182
[25]
  glycan array binding signal (z-score): -0.168
[26]
  glycan array binding signal (z-score): -0.185
[27]
  glycan array binding signal (z-score): -0.156
[28]
  glycan array binding signal (z-score): 0.034
[29]
  glycan array binding signal (z-score): -0.098
[30]
  glycan array binding signal (z-score): -0.181
[31]
  glycan array binding signal (z-score): -0.152
[32]
  glycan array binding signal (z-score): -0.182
[33]
  glycan array binding signal (z-score): -0.184
[34]
  glycan array binding signal (z-score): -0.173
[35]
  glycan array binding signal (z-score): -0.183
[36]
  glycan array binding signal (z-score): -0.186
[37]
  glycan array binding signal (z-score): -0.167
[38]
  glycan array binding signal (z-score): -0.169
